Experimental data as given in the supplement of paper PMC11417369.
± gives the standard deviation of the averaged measurements. This is one part of the list.

test system: PfAP2-I AP2 domain 3 (GST-tagged); test: gcPBM binding intensity (ln(normalized median fluorescence intensity)); higher = stronger DNA binding
Summary of the method: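 An Agilent 4 × 180k array carrying primer-extended double-stranded 36-bp intergenic genomic probes and negative controls received GST-tagged P. falciparum DNA-binding domains expressed in E. coli, about 25 μg on average, for 1 h. The binding buffer contained 1× PBS, 1% milk, 0.2 mg/ml BSA, 0.5% salmon testes DNA and 0.03% Triton X-100. Binding intensity is the top Masliner-normalised natural-log median intensity across replicate spots of either probe orientation, read after Alexa488 anti-GST antibody staining and a 488 nm scan.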

| Sequence | gcPBM binding intensity (ln) |
| --- | --- |
| ATATGTCCATATAGTAAATGTTACATTTTAAAGCGC [XGTACX_negctrl_site168] | 7.67 ± 0.56 |
| ATTCTTAAAAAATAAGTGCAAAATAATTAAATAAAT | 10.23 ± 0.014 |
| AGAATGGTTTATAAAGGTACGTAATTTTTAATTTTA [XGTACX_site383] | 7.54 ± 0.49 |
| TATTTATTTATTTAATGTACAAAAGAACAAGAATTT [XGTACX_site2248] | 7.83 ± 0.66 |
| TATGTATATACATAAACATGCAAAAACAATATCTTA [TGCATGCA_site950] | 7.61 ± 0.63 |
| TTCTTCTGTTTTATTACACACCATTTTGTGTATACA [CACACA_site7059] | 8.41 ± 0.76 |
| TCTTAATCGTATTATTACTATAATTATATAATATTT [CACACA_negctrl_site1594] | 7.77 ± 0.49 |
| AACGATATATGTACTACACACATTATGTCATCCTAT [CACACA_site2464] | 7.98 ± 0.45 |
| CAAAAAGGAATGTATGCACACAATTGATTTTAACTC [CACACA_site1468] | 8.66 ± 0.61 |
| ATATATATATTATATAGTACAGAGTATACTATTATA [XGTACX_site1893] | 8.48 ± 0.13 |
| ACAAAAGGGGAATACACACACATATATATATATATA [CACACA_site2215] | 9.35 ± 0.39 |
| GATCTAAAAACAAGGTGTACAAGAAAAAAAAAAAAA [XGTACX_site7577] | 8.36 ± 0.77 |
| ATATATATATAATGTTGTACATAAATATTATATTTA [XGTACX_site5225] | 8.96 ± 0.12 |
| TTTTTATTTATTCTCTTTGTATTATAAAATAAAAGC [XGTACX_negctrl_site253] | 7.67 ± 0.5 |
| GGAAAAATATAATATGCATGTTATTATTTTTTTATA [TGCATGCA_site836] | 8.07 ± 0.99 |
| TTTTTTTTCAATGGCACACATTTTAGATTTATGCTT [CACACA_site4735] | 8.26 ± 0.4 |
| CATAAATAATATATTTGTACGAATAAAATTTGTTCA [XGTACX_site3445] | 7.49 ± 0.34 |
| TAAAACAATATAAAATGTACAGAATTTTTTTTTCTT [XGTACX_site6820] | 7.51 ± 0.44 |
| TTCTTTTATGATAATTGTACCCTTTTTAAAAAGAAA [XGTACX_site7815] | 8.26 ± 0.21 |
| ATAATGAAAAGAAAGGGTACAAAAAAAAAAAAAAAT [XGTACX_site3350] | 7.97 ± 0.44 |
| AACTGATTATTTTTTTGTACATATATAATAATATAT [XGTACX_site5953] | 7.92 ± 0.42 |
| ATATGGATTATACATACATGCATACATACATACATA [TGCATGCA_site475] | 7.84 ± 0.76 |
| TATATACATATATGCACACAAAAAAATATATATTTT [CACACA_site1729] | 8.99 ± 0.11 |

| Sequence | gcPBM binding intensity (ln) |
| --- | --- |
| AATGATACACATATATGTACATATATATATATATAT [XGTACX_site5391] | 9.24 ± 0.41 |
| TGCAATATATCAAAGTGTACATGCAATAAAAAAAAA [XGTACX_site652] | 8.54 ± 0.74 |
| AAAATTTAATATAATGCACACATAAAACAAAAACAA [CACACA_site8071] | 10.9 ± 0.64 |
| AAATGTAGAAAAAGTTGTACACTGTTTCAAAAATAA [XGTACX_site1063] | 7.89 ± 0.44 |
| TTTAAAGTTTTATACACACACCAAAGTTATTCTAAT [CACACA_site6432] | 7.68 ± 0.52 |
| CAATGAAAAATAATGAGTACATAGTTAATAAAGATA [XGTACX_site72] | 7.89 ± 0.54 |
| ATAATTAAAATTAAATGTACTTTTTTATATATTTTT [XGTACX_site2209] | 7.57 ± 0.35 |
| AATTTCTTTTTCGATATACACACTGTATGTGTCTAA [CACACA_site3975] | 7.74 ± 0.72 |
| ATCTTAATTTTTGAAGGTACACACTAATATATTAAA [XGTACX_site2292] | 7.83 ± 0.38 |
| ATATTTTATTATATAGGTACACATAATTTCATGTAA [XGTACX_site415] | 7.83 ± 0.52 |
| TATATAGTAAATATTTGTACATAATAAAATATATGT [XGTACX_site7873] | 7.67 ± 0.46 |
| TTTTGTACATCTTTTGCACACGTAATGTTATTATAA [CACACA_site1259] | 9.39 ± 0.2 |
| AATAAATAAAAATGCACACAGTTAACATGTTGAATT [CACACA_site4795] | 8.62 ± 0.21 |
| TATAATATAAAAATGAGTACATAGATAATAATATTT [XGTACX_site2376] | 7.91 ± 0.6 |
| TTTTTTTTTTATTAATGTACAAGATATATAATGTTA [XGTACX_site4809] | 7.7 ± 0.64 |
| ATATATATTTTTAATTGTACAGAATTAAAAATATTG [XGTACX_site1967] | 7.64 ± 0.45 |
| AAAAAAAAAAAAAGCTGTACAATTAAAGACAAACCT [XGTACX_site8610] | 7.85 ± 0.49 |
| CTTTAACCATATATGTGTACGTATTTTATTCATATT [XGTACX_site6212] | 8.29 ± 0.46 |
| AAGAAGTGGAAAATATACTCCACATATATATATGTG [CACACA_negctrl_site304] | 8.51 ± 0.57 |
| AAAAAACAATTTGTGTGTACACATGATACGTTCGAT [XGTACX_site4112] | 8.12 ± 0.63 |
| TTTTTTACAGAAAAATATTAAAATTATAAATGTGAA [GTGCAC_negctrl_site451] | 7.72 ± 0.39 |
| GCCCACACGAACCATGCATGCCACGATATAAACCAC [TGCATGCA_site322] | 8.34 ± 0.82 |
| TAATATATATATATGGTGCATTTAATTTATATATAA | 11.2 ± 0.74 |

| Sequence | gcPBM binding intensity (ln) |
| --- | --- |
| TATGAAATTTTAATTACACACAGGAAAATAAAATGT [CACACA_site8430] | 7.89 ± 0.78 |
| TTATAATATATATAAAAGAAAAAAAATTATAATATA [CACACA_negctrl_site90] | 7.56 ± 0.59 |
| TTATTTTTCTTTATTGGTACACACGAAAAAAAAATT [XGTACX_site6482] | 8.03 ± 0.3 |
| TAATATATGTTATATACACACATATAAATATAAATA [CACACA_site6339] | 7.63 ± 0.45 |
| TGTGTATAAGTCACTTGTACTAGTAGTAAAAAAAAA [XGTACX_site4341] | 7.96 ± 0.6 |
| TGAAGTATAATTTATCTAATATGTTATATTTTATTT [TGCATGCA_negctrl_site56] | 7.04 ± 0.36 |
| TTTAATATTATTATTTTACACACTTTTTTCCTTTTA [CACACA_site8780] | 7.51 ± 0.77 |
| CAAATAATATTATGAAGTACTTCAAATTTTGAAAGA [XGTACX_site2530] | 7.75 ± 0.54 |
| TCTTATAAACTCTGCACACATAATATATTAAATGAG [CACACA_site1936] | 8.59 ± 0.33 |
| AATATAGGTATATCCACACACATATTTATATTTATA [CACACA_site6867] | 7.76 ± 0.6 |
| TAAAGTTTTTCCTATCTATATTTATATTATAAATGA [XGTACX_negctrl_site20] | 7.49 ± 0.56 |
| GTGAGTGAAATATGCAAACACACACCCGAAAAATGT [CACACA_site3197] | 8.29 ± 0.85 |
| TATGATTTTAATGAAACACACAATTTTATGTTAATA [CACACA_site311] | 7.38 ± 0.55 |
| TATAAAGGTATACAAAGTACAAAATACATATATACT [XGTACX_site6431] | 7.46 ± 0.46 |
| TTTTAGTTATTGTATTATTATTAATATATAATATCT [CACACA_negctrl_site1528] | 7.39 ± 0.6 |
| AAAGCATGTTAATATGTATAAATACTGATCATTCAC [GTGCAC_negctrl_site576] | 7.62 ± 0.42 |
| CTAAAATGTAAAAACGCACACATAATATTATAAAAA [CACACA_site2788] | 8.38 ± 0.45 |
| AACAGATAATATAAAAAAAAAAAAAAAAATAATTAA [GTGCAC_negctrl_site69] | 7.16 ± 0.59 |
| TGAATAAATCAAAGCACACATACACAGACATATATA [CACACA_site4316] | 8.405 ± 0.035 |
| CTTGTCATTTGGCACACACACATGTATAGGTTATTA [CACACA_site5656] | 8.44 ± 0.4 |
| TATATAAATAAACACACACACACCTTATAATTATTA [CACACA_site9345] | 7.86 ± 0.37 |
| GTAGTGGTTGAATATACACACATATATATATATATA [CACACA_site2651] | 9.41 ± 0.54 |
| AACGTGTATTTATATTGTACACATTCATACATCAAA [XGTACX_site3644] | 8.54 ± 0.55 |

| Sequence | gcPBM binding intensity (ln) |
| --- | --- |
| AGATAATAGGTTACTTGTACATATAAATAAATATAT [XGTACX_site158] | 7.55 ± 0.49 |
| TTTTGTTATTATGAAGTGCATTTATGTTCATGTCTA | 9.74 ± 0.25 |
| AAAAAAAAAAAAAATTCACACAAGACTACTACATTT [CACACA_site4195] | 7.68 ± 0.59 |
| AAAATCTAATATAATGCACACATAAAAAAAAATCAA [CACACA_site9211] | 10.9 ± 0.59 |
| ATATTAATTTCTCATGCATGTTCTACCCAATTGTAA [TGCATGCA_site355] | 8.1 ± 0.8 |
| TATATTATATATATACTGCACTGTTTTACAAAATTA | 10.8 ± 0.57 |
| ACCCTTTTATATAAGAGTACAAACGTATTATTAAAT [XGTACX_site2221] | 7.94 ± 0.27 |
| AATATTAAAAACAAAACACACAAAAAAAAATAAAAT [CACACA_site702] | 7.77 ± 0.55 |
| ATATATGACTAATAAAGTACATACTTCATATAATTA [XGTACX_site6699] | 8.09 ± 0.49 |
| TGTACGAGTCGTAGAGTGCAGTCTGGAGAAAAGTAC [GTGCAC_site9683] | 9.4 ± 0.13 |
| TATATATATATATATACACACTTGTGCAGAATATTA [CACACA_site5257] | 9.6 ± 0.15 |
| TATTTTTTTTTTTTTTGTACACATAATTGTAATCGT [XGTACX_site8415] | 7.88 ± 0.38 |
| CCACAGGATTGGTTCAAACACACATATTATATGACT [CACACA_site661] | 7.62 ± 0.65 |
| CATATAAAAATGTGCACACACACACCGATATATATT [CACACA_site4940] | 9.59 ± 0.17 |
| AAAAAAAAAATAAAATAAAATATATTATATATATTA [GTGCAC_negctrl_site431] | 7 ± 0.22 |
| TCACTTTTTATTAAATGTACATGCTTTCATTTTCAT [XGTACX_site8139] | 7.97 ± 0.57 |
| GAATAAATAATTAACACACACAATCTTTTTTTTTTT [CACACA_site3140] | 7.6 ± 0.49 |
| TATATATATATATATGTACACACATCAATCATATTA [CACACA_site8594] | 9.49 ± 0.56 |
| ATAAGGTTACAACAAACACACAAAGGAATATACACA [CACACA_site7840] | 7.99 ± 0.65 |
| AAAATTTTTTGAAATAGTACTTTTTTATATATATAT [XGTACX_site2634] | 9.24 ± 0.13 |
